Each structure is given as a SMILES string. Counter-ions that a name gives are not always drawn. ± gives the standard deviation of the averaged measurements. In all, about 2,600 compounds were measured (“total cell number (DAPI+ nuclei) relative to DMSO vehicle control”: median about -1.4, lowest 2% from about -23 on). Some of the results follow.

In the assay the test system is jimpy (Plp1 jimpy) mouse iPSC-derived oligodendrocyte progenitor cells. Put plainly: total cell number (DAPI+ nuclei) relative to DMSO vehicle control (SDs above negative control mean); higher = more surviving cells. As to conditions: 10 µM; 3 days. The protocol: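 Primary phenotypic screen of >3,000 bioactive compounds (Selleck L1700 and Sigma LO1280 libraries) at a single dose of 10 µM. Compounds were added to jimpy (Plp1 mutant) mouse iPSC-derived OPCs at the start of thyroid hormone-induced oligodendrocyte differentiation, one well per compound in 384-well plates. After 3 days cells were stained for MBP, Sox10 and DAPI and imaged with an Operetta system. MBP+ oligodendrocyte number and total cell number were expressed as the number of SDs above the mean of the DMSO negative control on the same plate (n=16 control wells per plate). Hits were defined as >=4 SD for oligodendrocytes and >=2 SD for total cells.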
For the compound `COc1cc(C(=O)NC2CCCNC2)cc(OC)c1OC` (stereo unspecified) [Troxipide], the total cell number was -0.832.

Take `C[C@]12CC[C@@H]3c4ccc(O)cc4CC[C@H]3[C@@H]1CCC2=O` [Estrone]: the total cell number came out at 5.32 ± 10.

For the compound `Nc1ncnc2c1c(-c1cnc3[nH]ccc3c1)nn2C1CCCC1`, the total cell number was -11.7.

Compound `COc1ccc2cc1Oc1ccc(cc1)C[C@H]1c3cc(c(OC)cc3CCN1C)Oc1c(OC)c(OC)cc3c1[C@H](C2)N(C)CC3` [Tetrandrine] had a total cell number of -12.9.

On to `COc1cc(OC)cc(-c2cc3cnc(N)nc3nc2NC(=O)NC(C)(C)C)c1`, for which the total cell number was -5.24.

`O=P(O)(O)C(Cl)(Cl)P(=O)(O)O` [Clodronic acid] gave a total cell number of -0.765.

Regarding `CCCCOc1cc(C(=O)NCCN(CC)CC)c2ccccc2n1` [Dibucaine HCl], the total cell number is -0.446.

`N#C[C@@H]1C[C@@H]2C[C@@H]2N1C(=O)[C@@H](N)C12CC3CC(CC(O)(C3)C1)C2` [Saxagliptin] gave a total cell number of 2.1.

In turn, `CCS(=O)(=O)CCn1c([N+](=O)[O-])cnc1C` [Tinidazole] returned a total cell number of 0.55.

`O=C1CCc2cc(OCCCCc3nnnn3C3CCCCC3)ccc2N1` [Cilostazol]: the total cell number turned out to be 1.61 ± 3.9.

On to `C[C@@]12C[C@@]3(O)O[C@@H](O1)[C@]1(COC(=O)c4ccccc4)[C@H]3C[C@@]12O[C@@H]1O[C@H](CO)[C@@H](O)[C@H](O)[C@H]1O` [Paeoniflorin], for which the total cell number is -1.48.

Turning to `Cc1ccccc1-n1c(Cn2nc(-c3cccc(O)c3)c3c(N)ncnc32)nc2cccc(C)c2c1=O`, the total cell number was -10.8.

`COc1cc(Nc2nc3ccccc3nc2NS(=O)(=O)c2ccc(NC(=O)c3ccc(C)c(OC)c3)cc2)cc(OC)c1` showed a total cell number of -0.366.

In turn, `CCC1=C(C)CN(C(=O)NCCc2ccc(S(=O)(=O)NC(=O)N[C@H]3CC[C@H](C)CC3)cc2)C1=O` [Glimepiride] returned a total cell number of 1.17.

`Cc1coc2c1C(=O)C(=O)c1c-2ccc2c(C)cccc12` [Tanshinone I] gave a total cell number of 0.0128.

On to `CC1(C)NC(=O)N(c2ccc([N+](=O)[O-])c(C(F)(F)F)c2)C1=O` [Nilutamide], for which the total cell number is -1.93.

Compound `Cc1[nH]c(/C=C2\C(=O)Nc3ccc(S(=O)(=O)N(C)c4cccc(Cl)c4)cc32)c(C)c1C(=O)N1CCN(C)CC1` yielded a total cell number of -26.7.

Consider `O=C(/C=C\n1cnc(-c2cc(C(F)(F)F)cc(C(F)(F)F)c2)n1)NNc1cnccn1`, for which the total cell number was -13.4.

Compound `CN(C)Cc1ccc(-c2nc3cccc4c3n2CCNC4=O)cc1` showed a total cell number of -3.3.

The compound `CC(C)C[C@H](NC(=O)[C@H]1O[C@@H]1C(=O)O)C(=O)NCCCCN=C(N)N` had a total cell number of -3.4 ± 0.35.

`COC(=O)[C@@H]1[C@H]2C[C@H]3c4[nH]c5ccccc5c4CCN3C[C@@H]2CC[C@@H]1O` [Yohimbine HCl]: the total cell number is -6.96.

With `COC(=O)[C@@H]1[C@H]2C[C@H]3c4[nH]c5ccccc5c4CCN3C[C@@H]2CC[C@@H]1O` [Yohimbine hydrochloride], the total cell number was -2.94.

`C=C(C)[C@@H]1CC=C(C(=O)O)CC1` [(-)-Perillic acid] had a total cell number of -1.68.

As for `Oc1c2ccccc2c2c3c(cccc13)N=N2`, the total cell number is -6.28 ± 3.6.

The compound `Cc1nc(NC(=O)N2CCC[C@H]2C(N)=O)sc1-c1ccnc(C(C)(C)C(F)(F)F)c1` yielded a total cell number of -10.3.

On to `O=S(=O)(O)CCS` [Mesna], for which the total cell number is -2.3.

`CCCCCCCCCCC/C=C\C(C)(C)/C=C\CCCC(=O)O` [7,7-Dimethyl-(5Z,8Z)-eicosadienoic acid] yielded a total cell number of 0.0609.

On to `CN(C)C1CCN(C(=O)c2ccc(NC(=O)Nc3ccc(-c4nc(N5CCOCC5)nc(N5CCOCC5)n4)cc3)cc2)CC1`, for which the total cell number was -10.8.

For `C[C@@H]1O[C@@H](O[C@H]2[C@H](Oc3cc(O)c(C(=O)CCc4ccc(O)cc4)c(O)c3)O[C@H](CO)[C@@H](O)[C@@H]2O)[C@H](O)[C@H](O)[C@H]1O` [Naringin Dihydrochalcone], the total cell number is -0.984.

As to `CCCCNC(=O)NS(=O)(=O)c1ccc(C)cc1` [Tolbutamide], the total cell number was -0.0359 ± 1.1.

In turn, `CCCS(=O)(=O)Nc1ccc(F)c(C(=O)c2c[nH]c3ncc(-c4ccc(Cl)cc4)cc23)c1F` [Vemurafenib (PLX4032, RG7204)] yielded a total cell number of 3.65.

`O=C(Nc1c(Cl)cncc1Cl)c1ccc(OC(F)F)c(OCC2CC2)c1` [Roflumilast] yielded a total cell number of -1.42.

For the compound `CCOC(=O)OC(C)OC1=C(C(=O)Nc2ccccn2)N(C)S(=O)(=O)c2ccccc21` (stereo unspecified) [Ampiroxicam], the total cell number is -0.95.

Take `CC(=O)N[C@H]1[C@H]([C@H](O)[C@H](O)CO)OC(C(=O)O)=C[C@@H]1NC(=N)N` [Zanamivir]: the total cell number was -0.366 ± 1.4.

The compound `CCC(=O)O[C@]1(C(=O)CCl)[C@@H](C)C[C@H]2[C@@H]3C[C@H](F)C4=CC(=O)C=C[C@]4(C)[C@@]3(F)[C@@H](O)C[C@@]21C` [Halobetasol Propionate] registered a total cell number of 10.4.

As to `CN(C)Cc1cccc(N/C(=C2\C(=O)Nc3cc(C(N)=O)ccc32)c2ccccc2)c1`, the total cell number was -14.3.

Compound `CCN1CC(CCN2CCOCC2)C(c2ccccc2)(c2ccccc2)C1=O` (stereo unspecified) [Doxapram HCl] had a total cell number of 2.

For `CC(=O)OCC(=O)[C@@]12N=C(C)O[C@@H]1C[C@H]1[C@@H]3CCC4=CC(=O)C=C[C@]4(C)[C@H]3[C@@H](O)C[C@@]12C` [Deflazacort], the total cell number came to 3.88.

For `C[C@@H](CN1CC(=O)NC(=O)C1)N1CC(=O)NC(=O)C1` [Dexrazoxane HCl (ICRF-187, ADR-529)], the total cell number was -11.9.

Consider `Cc1nc2n(c(=O)c1CCN1CCC(c3noc4cc(F)ccc34)CC1)CCCC2` [Risperidone], for which the total cell number is -2.69.

`CNCCC(Oc1ccc(C(F)(F)F)cc1)c1ccccc1` (stereo unspecified) [Fluoxetine HCl]: the total cell number was -16.5.

In turn, `CNCCC(Oc1ccc(C(F)(F)F)cc1)c1ccccc1` (stereo unspecified) [Fluoxetine hydrochloride] came in with a total cell number of -7.96.

As for `N=C(N)NCCC[C@H](N)C(=O)O` [L-Arginine], the total cell number is -1.54.

In the case of `COc1cc(C(=O)NS(=O)(=O)c2ccccc2C)ccc1Cc1cn(C)c2ccc(NC(=O)OC3CCCC3)cc12` [Zafirlukast], the total cell number came out at 0.455.

On to `Cc1cc(C2CCCCC2)n(O)c(=O)c1` [Ciclopirox ethanolamine], for which the total cell number is -8.93.

For `Cc1cc(C2CCCCC2)n(O)c(=O)c1` [Ciclopirox], the total cell number was -10.9.

`CC1=C(C(=O)OC(C)C)C(c2cccc([N+](=O)[O-])c2)C(C(=O)OC2CN(C(c3ccccc3)c3ccccc3)C2)=C(N)N1` (stereo unspecified) [Azelnidipine]: the total cell number was -12.3.

The compound `CCc1cncnc1N1CCN(Cc2nc3ccc(C(F)(F)F)cc3[nH]2)CC1` displayed a total cell number of -0.485.

`NC(=S)c1ccc[n+]([C@@H]2O[C@@H](COP(=O)([O-])OP(=O)(O)OC[C@H]3O[C@@H](n4cnc5c(N)ncnc54)C(OP(=O)(O)O)[C@H]3O)C(O)C2O)c1` (stereo partly specified) [Thio-NADP sodium] returned a total cell number of -1.17.

In turn, `NS(=O)(=O)c1cc(C(=O)O)c(NCc2ccco2)cc1Cl` [Furosemide] yielded a total cell number of -1.36 ± 2.3.

`O=C(O)c1cc(=O)c2ccccc2o1` [Chromocarb]: the total cell number worked out at 0.486.

`CCOc1cc([C@@H](CS(C)(=O)=O)N2C(=O)c3cccc(NC(C)=O)c3C2=O)ccc1OC` returned a total cell number of -1.74.

`CCOC(=O)[C@H](CCc1ccccc1)N[C@@H](C)C(=O)N1[C@H](C(=O)O)C[C@@H]2CCC[C@@H]21` [Ramipril] had a total cell number of 0.384.

Take `NC(=O)c1ncn([C@@H]2O[C@H](CO)[C@@H](O)[C@H]2O)n1` [Ribavirin]: the total cell number was -1.75 ± 1.2.

`CC(C)COCC(CN(Cc1ccccc1)c1ccccc1)N1CCCC1` (stereo unspecified) [Bepridil hydrochloride] came in with a total cell number of -1.61.

`CNC(=O)c1ccc(-c2cnc3ncc(Cc4ccc5ncccc5c4)n3n2)cc1F` had a total cell number of -5.79.

In turn, `Cn1c(=O)c2[nH]c(C3CCCC3)nc2n(C)c1=O` [8-Cyclopentyl-1,3-dimethylxanthine] showed a total cell number of -2.36.

As to `Cc1ccc(S(=O)(=O)n2c(N)nc3ccccc32)cc1` [ML130 (Nodinitib-1)], the total cell number was -0.632.

In turn, `COc1ccc(-c2nc3cc(C4=NNC(=O)CC4C)ccc3[nH]2)cc1` (stereo unspecified) [Pimobendan] returned a total cell number of 1.13.

In turn, `NCC(=O)Nc1ccc(-n2nc(C(F)(F)F)cc2-c2ccc3c(ccc4ccccc43)c2)cc1` came in with a total cell number of -26.5.

`COc1cc2ncnc(Oc3cccc(NC(=O)Nc4cc(C(C)(C)C(F)(F)F)on4)c3)c2cc1OC` showed a total cell number of -0.0576.

The compound `O=C(COc1ccc(Cl)cc1)NC1CCC(NC(=O)COc2ccc(Cl)cc2)CC1` (stereo unspecified) returned a total cell number of -1.54.

`O=c1c(O)c(-c2ccc(O)c(O)c2)oc2cc(O)ccc12` [Fisetin] yielded a total cell number of -5.2.

`CNS(=O)(=O)Cc1ccc2[nH]cc(CCN(C)C)c2c1` [Sumatriptan Succinate] had a total cell number of 1.76.

With `CN[C@H](CC(C)C)C(=O)N[C@H]1C(=O)N[C@@H](CC(N)=O)C(=O)N[C@H]2C(=O)N[C@H]3C(=O)N[C@H](C(=O)N[C@H](C(=O)O)c4cc(O)cc(O)c4-c4cc3ccc4O)[C@H](O)c3ccc(c(Cl)c3)Oc3cc2cc(c3O[C@@H]2O[C@H](CO)[C@@H](O)[C@H](O)[C@H]2O[C@H]2C[C@](C)(N)[C@H](O)[C@H](C)O2)Oc2ccc(cc2Cl)[C@H]1O` [Vancomycin hydrochloride from Streptomyces orientalis], the total cell number is -1.32.

`NS(=O)(=O)c1cc2c(cc1Cl)N=CNS2(=O)=O` [Chlorothiazide]: the total cell number amounted to 0.468 ± 1.3.

On to `COc1ccc(-c2cnc3c(-c4cccc5ncccc45)cnn3c2)cc1`, for which the total cell number was -5.27.

`Nc1ccc(-c2ccc3ccccc3n2)cc1` [BF-170 hydrochloride] displayed a total cell number of -1.72.

The compound `CC[C@H]1OC(=O)[C@H](C)[C@@H](O[C@H]2C[C@@](C)(OC)[C@@H](O)[C@H](C)O2)[C@H](C)[C@@H](O[C@@H]2O[C@H](C)C[C@H](N(C)C)[C@H]2O)[C@](C)(OC)C[C@@H](C)C(=O)[C@H](C)[C@@H](O)[C@]1(C)O` [Clarithromycin] registered a total cell number of -2.62.

The compound `O=[N+]([O-])c1ccc2c(c1)S(=O)(=O)C=C2` [Stattic] returned a total cell number of -13.1 ± 3.5.

In turn, `O=C(Nc1nc2ccccc2n1CCN1CCOCC1)c1cccc([N+](=O)[O-])c1` [IRAK-1/4 Inhibitor I] returned a total cell number of -0.22.

For the origin of these results see the supplement of paper PMC6135742.
